Source: PubChem BioAssay AID1347073 (National Center for Advancing Translational Sciences (NCATS), 2019)
The whole screen tested about 45,000 compounds, of which about 200 (0.44%) were called active. Inconclusive results (about 7%) are left out. Calls follow the shape of the dose curve; as a rule, active = well fitted activation curve with a large enough effect; inconclusive = small, poorly fitted or top-dose-only effect; inactive = no such curve, though single readings can be large or run the other way. The list shows a part of the results.

Test: qHTS of TDP-43 Inhibitors: NCGC Sytravon Library Screen; also: 0% is about no effect; nearly all actives have a fitted effect of over 55% in size
Conditions: yeast TDP-43 toxicity rescue, BacTiter-Glo growth, 24 h; series mostly up to 46.1 µM; growth rescue (activation): at the top concentration
In short: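 TDP-43-expressing yeast, pregrown in raffinose, seeded at OD600 0.02 in galactose medium with compound for 24 hr at 30 deg C. Growth read by BacTiter-Glo luminescence, so rescue of toxicity appears as activation.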

Compound | growth rescue (activation)
COc1cccc(/C=N/Nc2ccnc(=O)[nH]2)c1O | inactive: 21%
CCOc1cc(/C=C2\SC(=S)N(NC(=O)c3cccnc3)C2=O)ccc1O | inactive: -21.5%
Cn1nccc1C(=O)OCC(=O)Nc1ccccc1Cl | inactive: 10.2%
O=C(NCC1CCCO1)c1ccc2c(c1)C(=O)N(c1cccc([N+](=O)[O-])c1)C2=O (centres undefined) | inactive: 0.0745%
Cc1ccc(C)c(NC(=O)/C(C#N)=C/c2cn(CC(=O)NCc3ccco3)c3ccccc23)c1 | inactive: 22.2%
CCCCn1nc(NC(=O)c2cccc(Cl)c2)c2cc3cccc(C)c3nc21 | inactive: 5.05%
COc1ccc(C(=O)Nc2ccc(Oc3ncnc4sc(-c5ccccc5)cc34)cc2)cc1OC | inactive: 9.86%
COc1ccc(OC)c(NC(=O)c2cc(-c3cc(F)ccc3OCC3CCCO3)n[nH]2)c1 (centres undefined) | inactive: 29.1%
COc1ccc2[nH]c(=O)c(CN(Cc3cccs3)C(=S)Nc3cccc(C)c3)cc2c1 | inactive: -12.5%
COCc1c(C(=O)N2CCN(Cc3ccc(C#N)cc3)CC2)oc2ccccc12 | inactive: 3.07%
CNC(=O)C1CC(=O)N(c2ccc(OCC(=O)Nc3ccccc3C)cc2)C1 (centres undefined) | inactive: 25.4%
O=C(Nc1ccccc1NC(=O)c1ccccc1F)c1ccccc1F | inactive: -6.73%
O=C(CNCC1CCCCC1)Nc1ccc(OC(F)(F)F)cc1 | inactive: -7.79%
CCCC(c1nnnn1CS(=O)(=O)c1ccc(C)cc1)N1CCC(C(N)=O)CC1 (centres undefined) | inactive: -28.6%
COc1ccc2nc(SCC(=O)NCc3ccc(S(N)(=O)=O)cc3)[nH]c2c1 | inactive: -16.3%
CCOC(=O)c1cccc(NC(=O)/C=C/c2ccc3c(c2)OCO3)c1 | inactive: 4.13%
CC(=O)Nc1ccc(-c2ccnc3c2CC(C(=O)Nc2cccc(N(C)C)c2)O3)cc1 (centres undefined) | inactive: -5.24%
CC(C)(C)c1ccc(/C=C2\Oc3cc(OC(=O)N4CCOCC4)ccc3C2=O)cc1 | inactive: 19.6%
COc1ccc(Nc2nc(C(=O)N(CCO)Cc3ccccc3)cs2)cc1 | inactive: -1.27%
Cc1ccc(CN2CCN(Cc3ccc(-n4cccn4)cc3C)CC2CCO)cc1 (centres undefined) | inactive: -11.2%
CCCc1ncc(C(O)c2ccccc2OC)n1C (centres undefined) | inactive: -0.574%
Cc1nc2cc(NS(=O)(=O)c3cccc(F)c3)ccc2s1 | inactive: 5.5%
CCOC(=O)C1=C(C)NC(C)=C(C(=O)OCC)C1C(=O)OCC(=O)NC1CCCCC1 | inactive: -24%
COc1ccc(C(NC(=O)c2cc(OC)ccc2OC)c2ccccc2)cc1 (centres undefined) | inactive: 19.5%
CC(C)c1nnc(NC(=O)CCS(=O)(=O)Cc2ccccc2)s1 | inactive: -14.6%
O=C(CN1CCOCC1)NCCNS(=O)(=O)c1ccccc1 | inactive: 4.48%

Compound | growth rescue (activation)
Cc1cnc(C(=O)OCC(=O)Nc2ccc(C)c(S(=O)(=O)N3CCCCC3)c2)cn1 | inactive: 3.75%
C[n+]1c2n(c3ccccc31)N=C(c1cc(C(C)(C)C)c(O)c(C(C)(C)C)c1)CS2 | inactive: -12.1%
COc1ccc(N(CC(=O)NCc2ccccc2)C(=O)Cn2nnc(-c3ccccc3F)n2)cc1OC | inactive: 8.85%
Cc1ccccc1Nc1c(-c2cc(Br)ccc2F)nc2ccccn12 | inactive: -9.01%
CCOC(=O)CCc1c(C)n[nH]c1C | inactive: 5.21%
CSc1cccc(NC(=O)CCCNC(=O)c2ccc(Cl)cc2)c1 | inactive: 12.2%
COc1ccc(NC(=O)C2CC(=O)N/C(=N/N=C/c3ccco3)S2)cc1 (centres undefined) | inactive: -13.5%
Cc1c(Cl)cnc(NC(=O)COC(=O)c2ccc([N+](=O)[O-])s2)c1Cl | inactive: -93.1%
Cc1cc(C)c2c(CN3CC(C)OC(C)C3)cc(=O)oc2c1C (centres undefined) | inactive: 18.7%
CS(=O)(=O)c1ccc2nc(NC(=O)c3ccc(Cl)cc3)sc2c1 | inactive: 5.48%
Cc1ccc(CS(=O)(=O)CCC(=O)NCc2ccccn2)cc1 | inactive: -3.92%
CCCCc1ccc(S(=O)(=O)NCCCN2CCCC2=O)cc1 | inactive: 20.1%
Cc1ccc(S(=O)(=O)CCC(=O)NNC(=O)CN(C)S(=O)(=O)c2ccc(C)cc2)cc1 | inactive: -9.42%
CN(CC(=O)N1CCCCCC1)S(=O)(=O)c1ccc(F)cc1 | inactive: -6.59%
CNc1ccccc1C(C)(C)c1cc(-c2cc(C)cc(C)c2)no1 | inactive: 0.649%
CC(C)CN(C(=O)CSc1nnnn1-c1ccccc1)c1c(N)n(CC(C)C)c(=O)[nH]c1=O | inactive: -2.06%
O=c1cc(CN2CCN(c3ccc(F)cc3)CC2)nc2sccn12 | inactive: 8.13%
O=c1cc(N2CCCC2)c(-c2ccccc2)n[nH]1 | inactive: -12.1%
Cc1ccc(NC(=O)C(=O)NCCN2CCN(S(C)(=O)=O)CC2)cc1 | inactive: -5.26%
COc1ccc(C(=O)CCC(=O)Nc2cc(Cl)c(O)c(Cl)c2)cc1 | inactive: -10.1%
O=C(CN1CCC(NC(=O)Nc2ccccc2)CC1)Nc1ccc([N+](=O)[O-])cc1 | inactive: 5.96%
CCC(c1c(C)[nH]oc1=O)c1c(C)[nH]oc1=O | inactive: -6.4%
Cn1cc(C(=O)N/N=C/C2=C(N3CCOCC3)C(=C/c3ccc([N+](=O)[O-])cc3)/CC2)ccc1=O | inactive: 18.5%
O=c1cc(NCc2ccccc2)nc2n1CCCS2 | inactive: 0.47%
NC(=O)CSc1nc2c(sc3ccccc32)c(=O)n1CCCC(=O)NCC1CCCO1 (centres undefined) | inactive: 11.2%
CCc1ccc(NC(=O)CN2C(=O)C(c3ccc(Cl)cc3)=NC23CCCCC3)cc1 | inactive: 8.08%

Compound | growth rescue (activation)
O=C(O)CN1C(=O)/C(=C\c2cc(Br)ccc2OCc2ccccc2Cl)SC1=S | inactive: 12.8%
COCCNc1ccc(N2C(=O)C3CCCCC3C2=O)cc1[N+](=O)[O-] (centres undefined) | inactive: 0.864%
O=C(Nc1nc2ccccc2[nH]1)Nc1ccccc1F | inactive: 2.01%
O=C1/C(=C/c2ccc(O)c([N+](=O)[O-])c2)SC(=S)N1Cc1ccccc1 | inactive: -0.614%
O=C(Nc1ccc2c(c1)OCO2)c1cc(C2CCCCN2C(=O)c2ccc3c(c2)CCO3)on1 (centres undefined) | inactive: 26.3%
O=C(CCCl)Nc1nnc(SCC(=O)NC2CCCC2)s1 | inactive: -3.35%
Cc1ccsc1C(=O)N1CCC(CO)(Cc2ccccc2)CC1 | inactive: 13.7%
C=CCn1c(SCc2nc3sc(C(=O)O)c(C)c3c(=O)[nH]2)nnc1-c1ccc(F)cc1 | inactive: -2.05%
CCCn1ncc([C@@H]2C[C@H]3CN(Cc4cccc(Cl)c4)C(=O)[C@]34CCCN24)c1C | inactive: -9.37%
Cn1c(=O)c([N+](=O)[O-])c(-n2cnc3ccccc32)c2ccccc21 | inactive: 10.5%
CSc1cccc(NC(=S)N(CCC(C)C)C2CCN(C(C)C)CC2)c1 | inactive: 17.2%
CCC1CCCCN1C(=O)CSc1nnc(N)s1 (centres undefined) | inactive: -0.366%
CCOC(=O)C1CCCN(C(=O)c2cccc(S(=O)(=O)N3CCOCC3)c2)C1 (centres undefined) | inactive: 0.672%
CCc1ccc(-c2nc(C)c(CCO)c(=O)[nH]2)cc1 | inactive: -4.76%
O=C1S/C(=C\c2ccccc2)C(=O)N1CC(O)Cn1c2ccccc2c2ccccc21 (centres undefined) | inactive: 10.8%
CCn1cc(C(=O)NCCC(=O)NCCO)c(=O)c2cc3c(cc21)OCO3 | inactive: -5.63%
CC1CCN(C(=O)c2ccc([N+](=O)[O-])o2)CC1 | inactive: 16%
COc1ccc(-c2csc(N(CCCN3CCOCC3)C(=O)CCl)n2)cc1 | inactive: -1.94%
COc1cc(CNC(=O)Nc2nc(C(N)CCc3ccccc3)cs2)cc(OC)c1OC (centres undefined) | inactive: -3%
O=C(c1cc(COc2ccccc2)on1)N1CCCC(OCc2cccnc2)C1 (centres undefined) | inactive: 10.7%
COc1cc(OC)cc(C(=O)Nc2nnc(NC(=S)Nc3ccccc3)s2)c1 | inactive: -2.53%
COc1ccc(/C=N/NC(=O)C(=O)N2CCCCCC2)cc1 | inactive: -4.18%
CCOc1ccc(/C(O)=C/C(=O)C(=O)Nc2ccc(S(=O)(=O)NC(C)=O)cc2)cc1 | inactive: -41.4%
CC1CCC2(CC1)NC(=O)N(CC(=O)N1CCN(S(=O)(=O)c3ccccc3)CC1)C2=O (centres undefined) | inactive: 7.7%
CN(C)C(CNc1ncccn1)c1ccccc1 (centres undefined) | inactive: -9.96%
O=C(Nc1ccc(N2CCN(C(=O)c3ccco3)CC2)c(Cl)c1)c1cccnc1 | inactive: 12.8%

Compound | growth rescue (activation)
O=C(O)c1ccc(C(=O)C(=O)c2ccccc2)cc1 | inactive: -3.01%
CCOC(=O)/C(C#N)=C1/C(=O)N(Cc2ccccc2)c2ccccc21 | inactive: -25.3%
COc1ccc(NC(=O)c2cc3c(=O)n4ccccc4nc3n2C)c(OC)c1 | inactive: 8.21%
O=C1COc2cc(S(=O)(=O)NCc3ccco3)c(Cl)cc2N1 | inactive: 19.5%
COc1ccc2c(c1)c1nc3ccccc3nc1n2Cc1ccc(OC)c(OC)c1 | inactive: 25.6%
O=C(/C=C/c1ccccc1)NNc1ccc(Cl)cc1 | inactive: 4.76%
CSc1nsc(SCC(=O)Nc2ccc(C(N)=O)cc2)n1 | inactive: -1.5%
Cc1ccc(C(=O)NNC(=O)c2cccc(C)c2)cc1 | inactive: 5.76%
CCN(CC)S(=O)(=O)c1ccc(N2CCOCC2)c(NS(=O)(=O)c2ccc(C(C)C)cc2)c1 | inactive: 2.17%
CCOc1ccc(CCNC(=O)CSCc2ccc(C)cc2)cc1OCC | inactive: 10.2%
Cc1nn2c(-c3cccc(NC(=O)c4ccccc4)c3)nnc2c2ccccc12 | inactive: -0.371%
CCN(CC)S(=O)(=O)c1ccc(N2CCN(c3ccccc3OC)CC2)c(N)c1 | inactive: -10.7%
Cc1cccc(C)c1NC(=O)CS(=O)CC(=O)N1CCN(c2ccccc2)CC1 (centres undefined) | inactive: -1.23%
COc1ccc(Cl)cc1NC(=O)CC1CCCC1 | inactive: 40.1%
CCOc1cc(NC(=O)C2CCCCC2)c(OCC)cc1NC(=O)c1ccccn1 | inactive: -0.455%
CS(=O)(=O)N1CCc2cc(C(=O)Nc3ccc(Cl)cc3)ccc21 | inactive: -23%
O=C(O)CCn1c(=O)oc2cc(S(=O)(=O)N3CCCC3)ccc21 | inactive: 6.09%
CCOC(=O)c1c(C)oc2ccc(N(C(=O)Oc3ccccc3)S(=O)(=O)c3ccc(CC)cc3)cc12 | inactive: -9.51%
COC(=O)C1CCN(C(=O)CSc2nc3nc(C)cc(C)n3n2)CC1 | inactive: 11.9%
O=C(/C=C/c1ccc(Cl)cc1)N(Cc1ccccc1)C1CCS(=O)(=O)C1 (centres undefined) | inactive: 18.3%
COC(=O)c1sc(N)c(C(=O)OC)c1COC(=O)CNS(=O)(=O)c1cccc(C#N)c1 | inactive: 8.64%
CCOc1cccc(-c2cc(NCCc3ccccn3)n3nccc3n2)c1 | inactive: 19.6%
CC1CCN(C(=O)Cn2ncc3c4ccccc4n(C)c3c2=O)CC1 | inactive: -29.6%
O=C(O)CCc1nnc(SCC(=O)Nc2ccc(Br)cc2)[nH]c1=O | inactive: 4.93%
C=CCOc1ccc(C(c2c(C)n(C)n(-c3ccccc3)c2=O)c2c(C)n(C)n(-c3ccccc3)c2=O)cc1 | inactive: 6.21%
Cc1ccc(F)cc1NC(=O)CCNC(=O)c1ccc([N+](=O)[O-])cc1 | inactive: 5.77%
